Assay results taken from paper PMC9161972 (Journal of Medical Virology, 2022).

Assays:
[1] = test system: HIV/MLAV pseudovirus (Měnglà virus glycoprotein); experiment: organism not typed; assay type: cell-based; conditions: for IC50: A549, 48 h, read-out: IC50 HIV/MLAV
in vitro = conditions: human
[2] = test system: HIV/EBOV pseudovirus (Ebola virus Zaire Mayinga glycoprotein); experiment: organism not typed; assay type: cell-based; conditions: A549, 48 h, read-out: IC50 HIV/EBOV
[3] = test system: HIV/MARV pseudovirus (Marburg virus Musoke glycoprotein); experiment: organism not typed; assay type: cell-based; conditions: A549, 48 h, read-out: IC50 HIV/MARV

`Cc1ccccc1C(OCCN(C)C)c1ccccc1` (centres unmarked) [Orphenadrine] showed an IC50 [1] of 23 ± 4.71 µM, a CC50 (in vitro) greater than 100 µM and an IC50 [2] of 1.45 ± 0.56 µM. For the same molecule, the IC50 [3] was 10.1 ± 3.58 µM.

`CNCCC(Oc1ccc(C(F)(F)F)cc1)c1ccccc1` (centres unmarked) [Fluoxetine] showed an IC50 [1] of 7.84 ± 0.54 µM, an IC50 [2] of 3 ± 0.54 µM and an IC50 [3] of 2.44 ± 0.58 µM.

With `CN1[C@@H]2CC[C@H]1C[C@@H](OC(c1ccccc1)c1ccccc1)C2` [Benztropine] the “selectivity index (SI) with MLAV” value [1] was “greater than 10”, the IC50 [1] was 4.93 ± 0.24 µM and the IC50 [2] was 0.4 ± 0.52 µM. The IC50 [3] was 2.54 ± 0.57 µM.
